From the supplement of paper PMC11125491
± gives the standard deviation of the averaged measurements. Growth of baker's yeast expressing single-residue variants of Pneumocystis jirovecii dihydrofolate reductase in 8.8 or 44 µM methotrexate (about 75% and 90% inhibition of the wild type). Selection coefficient per generation; 0 = like wild type, above 0 = less sensitive, below 0 = more sensitive or loss of function. No active / inactive call per row; the paper calls resistant above 0.220 (8.8 µM) or 0.243 (44 µM) together with a significance test. At 44 µM about 15% of codons end with one read or none, so the lowest values are floors (replicate rank correlation 0.74; 0.94 at 8.8 µM).

B1: UniProt A0EPZ9; numbered along this chain (parent)
chain: MDWQKSLTLIVALTLSRGIGLKNDLPWKLKSDMMFFSRVTSGLLVTRSTGQMNVVLMGRKTWESLPAHSRPLKNRINVVISRQEVLDLGGGAYHARSLDDALALLSQIYDSTSKIQLNRVFVIGGGELCKAAMEHSRLNRIIATVIHNEVDCDVFFPIDFRSSQSCLPWRKQDHSVLEAWVGSKVPQGKINENGFIYEFEMWIRDI

Variants of: B1
Experiment: selection coefficient against synonymous wild-type codons (log2 per generation); higher = faster growth than wild type
Details: with Saccharomyces cerevisiae carrying the variant on a plasmid
Procedure: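 Pooled growth of yeast carrying single-residue variants of P. jirovecii dihydrofolate reductase (own DFR1 gene intact), two passages at 30 °C, three cultures, sequenced before and after. Codons with under 15 starting reads are left out; codons of one change are averaged.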

Row | Variant | selection coefficient against synonymous wild-type codons (log2) (methotrexate 8.8 µM) | selection coefficient against synonymous wild-type codons (log2) (methotrexate 44 µM)
1 | MDWQKSLTLIVALTLSRGIGLKNDLPWKLKSDMMFFSRVTSGLLVTRSTGQMNVVLMGRKTWESLPAHSRPLKNRINVVISRQEVLDLGGGAYHARSLDDALALLSQDYDSTSKIQLNRVFVIGGGELCKAAMEHSRLNRIIATVIHNEVDCDVFFPIDFRSSQSCLPWRKQDHSVLEAWVGSKVPQGKINENGFIYEFEMWIRDI [I108D] | -0.617 ± 0.17 | -0.184 ± 0.023
2 | MDWQKSLTLIVALTLSRGIGLKNDLPWKLKSDMMFFSRVTSGLLVTRSTGQMNVVLMGRKTWESLPAHSRPLKNRINVVISRQEVLDLGGGAYHARSLDDALALLSQEYDSTSKIQLNRVFVIGGGELCKAAMEHSRLNRIIATVIHNEVDCDVFFPIDFRSSQSCLPWRKQDHSVLEAWVGSKVPQGKINENGFIYEFEMWIRDI [I108E] | -0.241 ± 0.036 | -0.292 ± 0.2
3 | MDWQKSLTLIVALTLSRGIGLKNDLPWKLKSDMMFFSRVTSGLLVTRSTGQMNVVLMGRKTWESLPAHSRPLKNRINVVISRQEVLDLGGGAYHARSLDDALALLSQFYDSTSKIQLNRVFVIGGGELCKAAMEHSRLNRIIATVIHNEVDCDVFFPIDFRSSQSCLPWRKQDHSVLEAWVGSKVPQGKINENGFIYEFEMWIRDI [I108F] | -0.129 ± 0.038 | -0.0376 ± 0.1
4 | MDWQKSLTLIVALTLSRGIGLKNDLPWKLKSDMMFFSRVTSGLLVTRSTGQMNVVLMGRKTWESLPAHSRPLKNRINVVISRQEVLDLGGGAYHARSLDDALALLSQGYDSTSKIQLNRVFVIGGGELCKAAMEHSRLNRIIATVIHNEVDCDVFFPIDFRSSQSCLPWRKQDHSVLEAWVGSKVPQGKINENGFIYEFEMWIRDI [I108G] | -0.594 ± 0.071 | -0.389 ± 0.036
5 | MDWQKSLTLIVALTLSRGIGLKNDLPWKLKSDMMFFSRVTSGLLVTRSTGQMNVVLMGRKTWESLPAHSRPLKNRINVVISRQEVLDLGGGAYHARSLDDALALLSQKYDSTSKIQLNRVFVIGGGELCKAAMEHSRLNRIIATVIHNEVDCDVFFPIDFRSSQSCLPWRKQDHSVLEAWVGSKVPQGKINENGFIYEFEMWIRDI [I108K] | -0.141 ± 0.046 | -0.233 ± 0.19
6 | MDWQKSLTLIVALTLSRGIGLKNDLPWKLKSDMMFFSRVTSGLLVTRSTGQMNVVLMGRKTWESLPAHSRPLKNRINVVISRQEVLDLGGGAYHARSLDDALALLSQLYDSTSKIQLNRVFVIGGGELCKAAMEHSRLNRIIATVIHNEVDCDVFFPIDFRSSQSCLPWRKQDHSVLEAWVGSKVPQGKINENGFIYEFEMWIRDI [I108L] | 0.0345 ± 0.032 | 0.131 ± 0.1
7 | MDWQKSLTLIVALTLSRGIGLKNDLPWKLKSDMMFFSRVTSGLLVTRSTGQMNVVLMGRKTWESLPAHSRPLKNRINVVISRQEVLDLGGGAYHARSLDDALALLSQMYDSTSKIQLNRVFVIGGGELCKAAMEHSRLNRIIATVIHNEVDCDVFFPIDFRSSQSCLPWRKQDHSVLEAWVGSKVPQGKINENGFIYEFEMWIRDI [I108M] | 0.00166 ± 0.047 | 0.00625 ± 0.035
8 | MDWQKSLTLIVALTLSRGIGLKNDLPWKLKSDMMFFSRVTSGLLVTRSTGQMNVVLMGRKTWESLPAHSRPLKNRINVVISRQEVLDLGGGAYHARSLDDALALLSQNYDSTSKIQLNRVFVIGGGELCKAAMEHSRLNRIIATVIHNEVDCDVFFPIDFRSSQSCLPWRKQDHSVLEAWVGSKVPQGKINENGFIYEFEMWIRDI [I108N] | -0.416 ± 0.13 | -0.104 ± 0.1
9 | MDWQKSLTLIVALTLSRGIGLKNDLPWKLKSDMMFFSRVTSGLLVTRSTGQMNVVLMGRKTWESLPAHSRPLKNRINVVISRQEVLDLGGGAYHARSLDDALALLSQPYDSTSKIQLNRVFVIGGGELCKAAMEHSRLNRIIATVIHNEVDCDVFFPIDFRSSQSCLPWRKQDHSVLEAWVGSKVPQGKINENGFIYEFEMWIRDI [I108P] | -0.538 ± 0.087 | -0.106 ± 0.038
10 | MDWQKSLTLIVALTLSRGIGLKNDLPWKLKSDMMFFSRVTSGLLVTRSTGQMNVVLMGRKTWESLPAHSRPLKNRINVVISRQEVLDLGGGAYHARSLDDALALLSQQYDSTSKIQLNRVFVIGGGELCKAAMEHSRLNRIIATVIHNEVDCDVFFPIDFRSSQSCLPWRKQDHSVLEAWVGSKVPQGKINENGFIYEFEMWIRDI [I108Q] | -0.258 ± 0.1 | -0.281 ± 0.075
11 | MDWQKSLTLIVALTLSRGIGLKNDLPWKLKSDMMFFSRVTSGLLVTRSTGQMNVVLMGRKTWESLPAHSRPLKNRINVVISRQEVLDLGGGAYHARSLDDALALLSQRYDSTSKIQLNRVFVIGGGELCKAAMEHSRLNRIIATVIHNEVDCDVFFPIDFRSSQSCLPWRKQDHSVLEAWVGSKVPQGKINENGFIYEFEMWIRDI [I108R] | -0.256 ± 0.064 | -0.238 ± 0.12
12 | MDWQKSLTLIVALTLSRGIGLKNDLPWKLKSDMMFFSRVTSGLLVTRSTGQMNVVLMGRKTWESLPAHSRPLKNRINVVISRQEVLDLGGGAYHARSLDDALALLSQSYDSTSKIQLNRVFVIGGGELCKAAMEHSRLNRIIATVIHNEVDCDVFFPIDFRSSQSCLPWRKQDHSVLEAWVGSKVPQGKINENGFIYEFEMWIRDI [I108S] | -0.508 ± 0.12 | -0.138 ± 0.11
13 | MDWQKSLTLIVALTLSRGIGLKNDLPWKLKSDMMFFSRVTSGLLVTRSTGQMNVVLMGRKTWESLPAHSRPLKNRINVVISRQEVLDLGGGAYHARSLDDALALLSQTYDSTSKIQLNRVFVIGGGELCKAAMEHSRLNRIIATVIHNEVDCDVFFPIDFRSSQSCLPWRKQDHSVLEAWVGSKVPQGKINENGFIYEFEMWIRDI [I108T] | -0.391 ± 0.14 | -0.107 ± 0.13
14 | MDWQKSLTLIVALTLSRGIGLKNDLPWKLKSDMMFFSRVTSGLLVTRSTGQMNVVLMGRKTWESLPAHSRPLKNRINVVISRQEVLDLGGGAYHARSLDDALALLSQVYDSTSKIQLNRVFVIGGGELCKAAMEHSRLNRIIATVIHNEVDCDVFFPIDFRSSQSCLPWRKQDHSVLEAWVGSKVPQGKINENGFIYEFEMWIRDI [I108V] | -0.185 ± 0.041 | -0.146 ± 0.14
15 | MDWQKSLTLIVALTLSRGIGLKNDLPWKLKSDMMFFSRVTSGLLVTRSTGQMNVVLMGRKTWESLPAHSRPLKNRINVVISRQEVLDLGGGAYHARSLDDALALLSQWYDSTSKIQLNRVFVIGGGELCKAAMEHSRLNRIIATVIHNEVDCDVFFPIDFRSSQSCLPWRKQDHSVLEAWVGSKVPQGKINENGFIYEFEMWIRDI [I108W] | -0.163 ± 0.043 | -0.214 ± 0.16
